Source: the antibiotic and cytotoxicity screens of Wong et al. (2023)
Some of the results follow.

Key:
HSkMC = human skeletal muscle cells; assay: cytotoxicity call (relative viability < 0.9); details: 10 µM
HepG2 = assay: cytotoxicity call (relative viability < 0.9); details: 10 µM
S. aureus RN4220 = assay: growth inhibition call (relative growth <= 0.2); details: 50 µM

Row | Compound | cytotoxicity call (HSkMC) | cytotoxicity call (HepG2) | growth inhibition call (S. aureus RN4220)
1 | Cc1noc(C)c1NC(=O)N(C)C[C@@H]1OCCCC[C@@H](C)Oc2ccc(NS(=O)(=O)c3ccccc3)cc2C(=O)N([C@H](C)CO)C[C@@H]1C | inactive | inactive | inactive
2 | COc1ccc(NC(=O)Nc2ccc3c(c2)C(=O)N([C@H](C)CO)C[C@@H](C)[C@@H](CN(C)S(=O)(=O)c2c(C)noc2C)OCCCC[C@H](C)O3)cc1 | inactive | inactive | inactive
3 | C[C@@H]1CN([C@@H](C)CO)C(=O)Cc2cc(NC(=O)Cn3cnnn3)ccc2O[C@H]1CN(C)CC1CCCCC1 | inactive | inactive | inactive
4 | COc1ccc(NC(=O)N(C)C[C@@H]2Oc3ccc(NS(=O)(=O)c4cn(C)cn4)cc3CC(=O)N([C@@H](C)CO)C[C@H]2C)cc1 | inactive | inactive | inactive
5 | CN(C)CC(=O)N[C@H]1CC[C@H](CCn2cc(CN(C)C)nn2)O[C@@H]1CO | inactive | inactive | inactive
6 | Cc1noc(C)c1NC(=O)Nc1ccc2c(c1)C(=O)N([C@H](C)CO)C[C@@H](C)[C@@H](CN(C)Cc1ccc(C(=O)Nc3ccccc3N)cc1)O2 | inactive | inactive | inactive
7 | Cc1noc(C)c1NC(=O)Nc1ccc2c(c1)C(=O)N([C@@H](C)CO)C[C@@H](C)[C@H](CN(C)Cc1ccc(C(=O)Nc3ccccc3N)cc1)O2 | inactive | inactive | inactive
8 | C[C@H](CO)N1C[C@H](C)[C@@H](CN(C)S(=O)(=O)c2cccs2)OCCCC[C@H](C)Oc2ccc(NS(=O)(=O)c3ccc(Cl)cc3)cc2C1=O | inactive | active | inactive
9 | C[C@@H]1CN([C@H](C)CO)S(=O)(=O)c2ccc(C#Cc3ccccc3F)cc2O[C@H]1CN(C)C(=O)c1ccc2c(c1)OCO2 | inactive | inactive | inactive
10 | COCC#Cc1cnc2c(c1)C(=O)N([C@H](C)CO)C[C@H](C)[C@@H](CN(C)C(=O)Nc1cc(F)ccc1F)O2 | inactive | inactive | inactive
11 | COc1ccc(S(=O)(=O)Nc2ccc3c(c2)CC(=O)N([C@@H](C)CO)C[C@H](C)[C@@H](CN(C)S(=O)(=O)c2cn(C)cn2)O3)cc1 | inactive | inactive | inactive
12 | CC(C)NC(=O)Nc1ccc2c(c1)C(=O)N([C@H](C)CO)C[C@H](C)[C@H](CN(C)S(=O)(=O)c1cn(C)cn1)OCCCC[C@H](C)O2 | inactive | inactive | inactive
13 | N#CCNC(=O)Cc1ccccc1 | inactive | inactive | inactive
14 | Cc1noc(C)c1S(=O)(=O)N(C)C[C@@H]1OCc2cn(nn2)CCCC(=O)N([C@H](C)CO)C[C@@H]1C | inactive | inactive | inactive
15 | Cc1noc(C)c1S(=O)(=O)N(C)C[C@@H]1Oc2c(NC(=O)c3cnccn3)cccc2C(=O)N([C@@H](C)CO)C[C@@H]1C | inactive | inactive | inactive
16 | Cc1noc(C)c1NC(=O)N(C)C[C@@H]1Oc2ccc(NC(=O)C3CC3)cc2CC(=O)N([C@@H](C)CO)C[C@@H]1C | inactive | inactive | inactive
17 | C=c1cc(C)ccc1=C1NN=C(NC(C)=O)O1 | inactive | inactive | inactive
18 | COc1ccc(C)c2c1CCCC2=O | inactive | inactive | inactive
19 | C[C@@H]1CCCCO[C@H](CN(C)C(=O)C2CCCCC2)[C@@H](C)CN([C@@H](C)CO)C(=O)c2cc(NC(=O)CCC(F)(F)F)ccc2O1 | inactive | inactive | inactive
20 | CC(C(=O)O)c1ccc(-c2ccccc2)c(F)c1 (stereo not given) | inactive | inactive | inactive
21 | C[C@@H]1CN([C@H](C)CO)C(=O)Cc2cc(NC(=O)Nc3ccc(F)cc3)ccc2O[C@@H]1CN(C)C(=O)Nc1cccc2ccccc12 | inactive | inactive | inactive
22 | COc1ccc(S(=O)(=O)Nc2ccc3c(c2)C(=O)N([C@H](C)CO)C[C@H](C)[C@@H](CN(C)C(=O)Nc2ccc(C(F)(F)F)cc2)OCCCC[C@H](C)O3)cc1 | inactive | inactive | inactive
23 | C[C@H](CO)N1C[C@H](C)[C@H](CN(C)C(=O)Nc2ccc(C(F)(F)F)cc2)OCCCC[C@H](C)Oc2ccc(NC(=O)C3CCCCC3)cc2C1=O | inactive | inactive | inactive
24 | Cc1noc(C)c1NC(=O)Nc1ccc2c(c1)C(=O)N([C@H](C)CO)C[C@H](C)[C@@H](CN(C)S(=O)(=O)c1cn(C)cn1)O2 | inactive | inactive | inactive
25 | C[C@@H]1CN([C@@H](C)CO)C(=O)c2cc(C#CCN(C)C)cnc2O[C@@H]1CN(C)S(C)(=O)=O | inactive | inactive | inactive
